Variants at the background level are over-represented here.
B1: TPR 5TU (parent)
chain: GGAUCUUCUCGAUCUAACAAAAAAGACAAAUCUGCCACAAAGCUUGAGAGCAUCUUCGGAUGCAGAGGCGGCAGCCUUCGGUGGCGCGAUAGCGCCAACGUUCUCAACUAUGACACGCAAAACGCGUGCUCCGUUGAAUGGAGUUUAUCAUG

Variants of: B1
Test: polymerase ribozyme fitness, log enrichment relative to wild type (log ratio); higher = more active; in vitro selection for triplet polymerase activity
Summary of the method: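 Fitness measures genotype enrichment against wild-type enrichment on a logarithmic scale, with inverse-variance-weighted averaging of replicates. The logarithm is base 2, and genotypes were kept only with ≥10 input reads and ≥1 read per output in Illumina sequencing. The sequenced libraries came from one triplicate in vitro selection round, including frozen incubation at −7 °C, of PCR-built, transcribed mutant libraries of each subunit of a heterodimeric triplet polymerase ribozyme.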

Row | Variant | polymerase ribozyme fitness (log ratio)
1 | GGAUCUUCUCGAUCUAACAAAAAAGACAAAUCUGCCACAAAGCUUGAGAGCAUCUUCGCAUGCAGAGGCGGCAGCCUUCGGUGGCGGGAUAGCGCCAACGUUCUCAACUAUGACACGCAAAACGCGUGCUCCGUUGAAAGGAGUUUAUCAUG [G59C C87G U139A] | ≤ -4.2
2 | GGAUCUUCUCGAUCUAACAAAAAAGACAAAUCUGCCACAAAGCUUGAGAGCAUCUUCGAAUGCAGAGGCGACAGCCUUCGGUGGCGCGAUGGCGCCAACGUUCUCAACUAUGACACGCAAAACUCGUGCUCCGUUGAAUCGAGUUUAUCAUG [G59A G71A A91G G124U G140C] | ≤ -4.2
3 | GGAUCUUCUCGAUCUAACAAAAAAGACAAAUCUGCCACAAAGCUUGAGAGCAUCUUCGCAUGCAGAGGCGGCAGCCUUCGGUGGCGCUAUAGCGCCAGCGUGCUCAUCUAUGACACGCAAAACGCGUGCUCCGUUGUAUGGAGUUUAUCAUG [G59C G88U A98G U102G A107U A137U] | ≤ -4.2
4 | GGAUCUUCUCGAUCUAACAAAAAAGACAAAUCUGCCACAAAGCUUGAGAGCAUCUUCGCAUGCAGAGCCGGCAGCCUUGGUUGGCGCGAUAGCGACAACGUUCUCAACUAUGACACGCAAAACGCGUGCUCUGUUGAAUGGAGUUUAUCAUG [G59C G68C C79G G81U C95A C132U] | ≤ -4.2
5 | GGAUCUUCUCGAUCUAACAAAAAAGACAAAUCUGCCACAAAGCUUGAGAGCAUCUUCGGGUGCAGAGGCGGCAGCCUUCGGUGGCGCGAUAACGCCAAGGUUCUCAACUAUGACACGCAAAACGCGUGCUCCGUUGAAUCGAGUUUAUCAUG [A60G G92A C99G G140C] | ≤ -4.2
6 | GGAUCUUCUCGAUCUAACAAAAAAGACAAAUCUGCCACAAAGCUUGAGAGCAUCUUCGGGUGCAGAGGCGGCAGCCUUCGGUGGCGCGAUAGCGCCAACGUUCUCAACUAUGAUACGCAAAACGCGUGCUCCGUUGAAUGGAGUUUAUCACG [A60G C114U U151C] | ≤ -4.2
7 | GGAUCUUCUCGAUCUAACAAAAAAGACAAAUCUGCCACAAAGCUUGAGAGCAUCUUCGGCUACAGAGGCGGCAGUCUUAGGUGGAGCGAUAGCGCCAACGUUCUCAACUAUGAUACGCAAAACGUGUGCUCCGUUGAAUGGAGUUUAUCAUG [A60C G62A C75U C79A C85A C114U C125U] | ≤ -4.2
8 | GGAUCUUCUCGAUCUAACAAAAAAGACAAAUCUGCCACAAAGCUUGAGAGCAUCUUCGUAUGCAGAGGCGGCAGCCUACGGUGGCGUGAUAGGGCCAACGUUCUCAACUAUGACACGCAAAACGCGUGCUCCGUUGAAUGGAGUUUAUCAUG [G59U U78A C87U C93G] | ≤ -4.2
9 | GGAUCUUCUCGAUCUAACAAAAAAGACAAAUCUGCCACAAAGCUUGAGAGCAUCUUCGUCUGCAGAGGCGGCAGCUUUCGGUGGCGCGAUGGCGCCAACGUUCUCAACUAUGACACGCAAAACGCGUGCUCCGUUGAAUGGAGUUUAUCAUG [G59U A60C C76U A91G] | ≤ -4.2
10 | GGAUCUUCUCGAUCUAACAAAAAAGACAAAUCUGCCACAAAGCUUGAGAGCAUCUUCGGCUGCAGAGGCGGCAGCCUUCGGUGGGGCGAUAGCGCCAAAGUUUUCAACUAUGACACGGAAAACGCGUGCUCCGUUGAAUGGAGUUUAUCAUG [A60C C85G C99A C103U C118G] | ≤ -4.2
11 | GGAUCUUCUCGAUCUAACAAAAAAGACAAAUCUGCCACAAAGCUUGAGAGCAUCUUCGCAUGCAGAGGCGGCAUCCGUCGGUGGCGCGAUAGCGCCAACGUUGUCAGCUAUGACCCGCAAAACGCGUGCUCCGUUGAAUGUAGUUUAUCAUG [G59C G74U U77G C103G A107G A115C G141U] | ≤ -4.2
12 | GGAUCUUCUCGAUCUAACAAAAAAGACAAAUCUGCCACAAAGCUUGAGAGCAUCUUCGGCUGCUGAGGCGGCAGCCUUCGGUGACGCGAUAGCGCCAAUGUUCUCAACUAUGACACGCAAAACGCGUGCUCCGUAGAAUGGAGUUUAUCAUG [A60C A64U G84A C99U U135A] | ≤ -4.2
13 | GGAUCUUCUCGAUCUAACAAAAAAGACAAAUCUGCCACAAAGCUUGAGAGCAUCUUCGGGUGCAGAGGCGGCAGCUUUCGGUGGCGCGAUAGGGCCAAGGUUCUCAACUAUGACACGCAAAACGCGUGCUCCGUUGAAUGUAGUUUAUCAUG [A60G C76U C93G C99G G141U] | ≤ -4.2
14 | GGAUCUUCUCGAUCUAACAAAAAAGACAAAUCUGCCACAAAGCUUGAGAGCAUCUUCGCAUCCAGAGGCGGCAGCCUUCGGUGGAGCGAUAGCGCCAACGUUCUCAACGAUGACACGCAAAACGCGUGGUCCGUUGAAUGGACUUUAUCAUG [G59C G62C C85A U109G C129G G143C] | ≤ -4.2
15 | GGAUCUUCUCGAUCUAACAAAAAAGACAAAUCUGCCACAAAGCUUGAGAGCAUCUUCGUAUGCAGAGGCGGCAGCCUUCUGUGGCGCUAUAGCGCCAACGUUCUCAACUAUGACACGCAAAACGCGUGCUCCGUUGAAUGGAGUUUAUCAAG [G59U G80U G88U U151A] | ≤ -4.2
16 | GGAUCUUCUCGAUCUAACAAAAAAGACAAAUCUGCCACAAAGCUUGAGAGCAUCUUCGGGUGCAGAGGCGGCAGCCUUCGGUGGCGCGAUAGCGCCAACGUUCUCAACUAUGACACGCAAAACGCGUGCUCCGUUGUAGGAAGUUUAUCAUG [A60G A137U U139G G141A] | ≤ -4.2
17 | GGAUCUUCUCGAUCUAACAAAAAAGACAAAUCUGCCACAAAGCUUGAGAGCAUCUUCGUAUGCAGAGGUGGCAGCCUUCGGUGGCGCGAUAGCUCCAGCGUGCUCAACUAUGACACGCAAAACGCGUGCUCCGUCGAAUGGAGUUUAUCAUG [G59U C69U G94U A98G U102G U135C] | ≤ -4.2
18 | GGAUCUUCUCGAUCUAACAAAAAAGACAAAUCUGCCACAAAGCUUGAGAGCAUCUUCGUAUACAGAGGCGGCAGCCUUCGGUGGCACGAUAGCGCCAACGUUCACAACUAUGACACGCAAAACGCGUGCUCCGUUGAAUGGAGUUUAUCAUG [G59U G62A G86A U104A] | ≤ -4.2
19 | GGAUCUUCUCGAUCUAACAAAAAAGACAAAUCUGCCACAAAGCUUGAGAGCAUCUUCGCAAGCAGAGGCGGCAGCCUUCGGUGGAGCGAUAGCGCAAACGUUCUAAACUAUGACACGCAAAACGCGUGCUCCGAUGAAUGGAGUUUAUCAUG [G59C U61A C85A C96A C105A U134A] | ≤ -4.2
